# The campaign covered roughly 350,000 compounds. About 9,900 (2.8%) were called active. Inconclusive means that the source gave no clear call. Such entries were picked first, then a sample of the others. Calls come from the whole dose curve; as a rule, active = well fitted activation curve with a large enough effect; inconclusive = small, poorly fitted or top-dose-only effect; inactive = no such curve, though single readings can be large or run the other way. No potency is given beside an inconclusive call; the fits are too rough.
# Test: A quantitative high throughput screen for small molecules that induce DNA re-replication in MCF 10a normal breast cells. Note: nearly all actives have a fitted effect of over 50% in size.
# Conditions: MCF 10A DNA re-replication, Hoechst nuclear intensity, 48 h; series mostly up to 46.1 µM
# Potency is the fitted concentration of half-maximal effect; tags give direction and shape of the fitted curve.
row,Compound,Potency
1,COc1cc(-c2nc(S(=O)(=O)c3ccc(C)cc3)c(N3CCOCC3)o2)cc(OC)c1OC,inactive
2,CCCC(C(=O)NC1CCCC1)N(CC1CCCO1)C(=O)c1snc(C(N)=O)c1N (configuration not stated),inactive
3,CCOc1c(Cl)cc(CNc2ccc(N3CCCC3)cc2)cc1OC,"inconclusive [activator, single point]"
4,Cc1cc(C(=O)Nc2sc3c(c2C#N)CCC(C)C3)cs1 (configuration not stated),"inconclusive [activator, partial curve]"
5,NNC(=O)c1ccc(Cl)cc1Cl,"inconclusive [activator, partial curve, poor fit]"
6,CCN(CC)CCNC(=O)c1ccc(NC(=O)C2CCN(c3ncnc4sc(C)c(C)c34)CC2)cc1,"inconclusive [activator, single point]"
7,COc1ccc(Cl)cc1NC(=O)CSc1nnc(CNC(=O)c2ccco2)o1,"inconclusive [activator, full curve, poor fit]"
8,O=C(CN(C(=O)CCC(=O)Nc1ccccn1)C1CCCC1)NCc1ccccc1,inactive
9,NNC(=O)c1n[nH]c2c1CC(C1CCCCC1)CC2 (configuration not stated),"inconclusive [activator, full curve, poor fit]"
10,CC(=O)c1ccc(N(C)C)cc1,inactive
11,O=C1c2cccc3cccc(c23)C(=O)N1CC1CCN(CC(O)COCc2ccc3c(c2)OCO3)CC1 (configuration not stated),"inconclusive [activator, full curve, poor fit]"
12,C[C@H](CO)N1C[C@H](C)[C@H](CN(C)CC2CCCCC2)Oc2ccc(NS(=O)(=O)c3ccc(F)cc3)cc2CC1=O,"inconclusive [activator, single point]"
13,CCCCc1ccc(NC(=S)NCc2ccc(OC)cc2)cc1,inactive
14,CC[C@]12c3[nH]c4cc(-c5ccco5)ccc4c3CCN1C(=O)[C@@H](CC(=O)NC/C=C(\C)CCC=C(C)C)C[C@@H]2C(=O)N1CCN(C(=O)c2ccco2)CC1,"inconclusive [activator, partial curve]"
15,Cn1ncc(SCc2ccccc2)c(Cl)c1=O,"inconclusive [activator, single point]"
16,COc1ccc([C@H]2CC(=O)C=C(c3cc(Br)ccc3OC)C2)cc1,"inconclusive [activator, single point]"
17,CCOC(=O)c1sc(NC(=O)CSc2nnnn2-c2ccc(C)c(C)c2)nc1C,active: 5.8 µM
18,Nc1ccccc1-c1nc2ccccc2s1,active: 16.4 µM
19,Cc1noc(C)c1S(=O)(=O)N(C)C[C@H]1Oc2ccc(NC(=O)C3CCCCC3)cc2C(=O)N([C@H](C)CO)C[C@@H]1C,inactive
20,C=CC[C@@H](CC(=O)N[C@@H](CO)Cc1ccccc1)C(=O)NC[C@@H](OC(=O)[C@@H](CC=C)CC(=O)OC(C)(C)C)c1ccccc1,"inconclusive [activator, partial curve, poor fit]"
21,O=C(NCc1ccco1)c1ccccc1Nc1ccc(F)cc1,"inconclusive [activator, single point]"

row,Compound,Potency
1,O=C(NCc1nc2ccccc2[nH]1)C1=C[C@@H](c2ccc(Br)cc2)C[C@@H](OCc2ccc(CO)cc2)O1,"inconclusive [activator, full curve, poor fit]"
2,CC(=O)c1cccc(NC(=O)CC2S/C(=N/N=C/c3cccs3)NC2=O)c1 (configuration not stated),inactive
3,Cc1nc(SCC(=O)N(C)Cc2ccco2)c2c(C)c(C)sc2n1,"inconclusive [activator, partial curve]"
4,COc1ccc(-n2nc3c(N4CCC(C(=O)NCc5ccccc5C)CC4)nnc(C)c3c2C)cc1,"inconclusive [activator, single point]"
5,Cc1cc2ncc(-c3ccccc3)nc2cc1C,inactive
6,Cc1ccc(/C=C2\SC(=S)N(CCC(=O)NNC(=O)c3cccnc3)C2=O)cc1,inactive
7,CN(CC(=O)Nc1ccc(C#N)cc1)Cc1ccc(Cl)cc1,"inconclusive [activator, full curve, poor fit]"
8,COc1ccc(/C=C/C(=O)Nc2ccc(C34CC5CC(CC(O)(C5)C3)C4)cc2)cc1OC,"inconclusive [activator, partial curve]"
9,CC1=CC2=NC(=O)/C(=C\c3cc(C)n(-c4ccc(F)cc4)c3C)C(=N)N2O1,"inconclusive [activator, single point]"
10,Cc1ccc(NC2=C(Cl)C(=O)c3ccccc3C2=O)cc1,active: 7.31 µM
11,O=C(CNC(=O)c1n[nH]c2ccccc12)Nc1cc(Cl)ccc1Cl,inactive
12,O=C(COc1ccc(Cl)cc1Cl)N/N=C/C1CC=CCC1 (configuration not stated),inactive
13,CC(=O)C[C@H](O)CC(=O)[C@@H]1OC(=O)[C@H](C)C/C=C\Cc2ccccc21,"inconclusive [activator, full curve, poor fit]"
14,O=C(Cc1ccc(F)cc1)N1CCN(c2ccc(F)cc2)CC1,"inconclusive [activator, single point]"
15,O=C(/C=C\c1cn(-c2ccccc2)nc1-c1cccs1)N1CCOCC1,"inconclusive [activator, partial curve, poor fit]"
16,CCCCSc1nc2c([nH]1)c(=S)n(C)c(=O)n2C,"inconclusive [activator, partial curve, poor fit]"
17,COc1cccc(CNC(=O)Cn2ncc3c(=O)oc4ccccc4c32)c1,"inconclusive [activator, single point]"
18,COCc1c(C(=O)N/N=C/c2cccc3ccccc23)nnn1-c1nonc1N,"inconclusive [activator, full curve, poor fit]"
19,COc1ccc(N=C2NC(=O)/C(=C/C=C/c3ccccc3)S2)cc1,"inconclusive [activator, partial curve]"
20,CCOC(=O)c1c(-c2ccccc2)oc2ccc(O)c(CN3CCN(C)CC3)c12,active: 23.1 µM
21,CC(=O)Nc1c(Cl)c(Cl)c2c(c1Cl)C(=O)c1cc(Cl)ccc1-2,inactive
